The source of these data is PubChem BioAssay AID360 (National Center for Advancing Translational Sciences (NCATS), 2006).

Among all 48,000 compounds or so, about 550 (1.1%) were called active. Another 4% or so got no clear call; they are omitted. Rule as the data show it: active = potency below about 15 µM; inconclusive = mostly about 16 µM to 33 µM; inactive = weaker than that. This is one part of the list. Bounds are passed on as bounds.
Potency is read from the fitted curve at half-maximal effect.

UniProt P04062, sequence (P04062 whole entry, looked up): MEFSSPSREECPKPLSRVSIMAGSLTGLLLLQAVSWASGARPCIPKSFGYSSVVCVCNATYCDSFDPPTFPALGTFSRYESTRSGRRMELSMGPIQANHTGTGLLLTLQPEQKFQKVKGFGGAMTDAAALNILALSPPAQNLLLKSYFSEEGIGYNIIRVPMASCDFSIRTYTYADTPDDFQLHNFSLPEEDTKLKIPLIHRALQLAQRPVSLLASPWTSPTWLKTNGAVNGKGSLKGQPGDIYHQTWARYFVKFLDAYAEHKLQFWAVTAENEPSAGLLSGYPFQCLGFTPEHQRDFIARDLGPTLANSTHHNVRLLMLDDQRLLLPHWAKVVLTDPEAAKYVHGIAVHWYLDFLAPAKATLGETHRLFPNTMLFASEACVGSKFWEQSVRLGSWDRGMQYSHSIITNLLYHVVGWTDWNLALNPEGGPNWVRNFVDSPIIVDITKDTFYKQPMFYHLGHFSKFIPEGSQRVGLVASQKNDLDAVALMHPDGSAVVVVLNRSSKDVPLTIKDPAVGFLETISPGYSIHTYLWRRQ

For the assay, the target named is Lysosomal acid glucosylceramidase (Homo sapiens) (UniProt P04062). Nature of the assay: Glucocerebrosidase.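 Also: the screen sought inhibitors.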 The settings on record: purified enzyme, resorufin glucoside fluorescence (screen aimed at inhibitors), 20 min; series mostly up to 77 µM. Put shortly:
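Wild-type enzyme at 0.2 nM final in 50mM citric acid/KH2PO4, 10mM sodium taurocholate, 0.01% tween-20, pH 5.9, with resorufin beta-D-glucopyranoside at 30 uM final. Compounds titrated, 20 min at RT, red fluorescence read; AC50 from titration.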
As to `c1ccc(N=P(N2CCOCC2)(N2CCOCC2)N2CCOCC2)cc1`, the Potency was inactive: > 76.9 µM.
For `CN1CCN(CCC(=O)Nc2cccc(F)c2)CC1` the value was inactive: > 76.9 µM.
For `O=c1cc(N2CCc3ccccc32)[nH]c(=O)n1-c1ccccc1` the value was inactive: > 76.9 µM.
Regarding `Cc1cccc(-n2c(=O)[nH]c3c(C(N)=O)nc(CC(C)C)nc32)c1`, the Potency was inactive: > 76.9 µM.
For `COc1ccc(C(CC(=O)O)NS(=O)(=O)c2ccc(C)cc2)cc1OC` (configuration not stated), the Potency was inactive: > 76.9 µM.
Take `Fc1cccc(-c2cc3nc4c(c(N5CCOCC5)n3n2)CCCC4)c1`: the Potency was inactive: > 76.9 µM.
With `O=C(O)CSc1nnc(-c2ccc(S(=O)(=O)N3CCCC3)cc2)n1Cc1ccco1`, the Potency was inactive: > 76.9 µM.
Consider `O=C(COC(=O)c1cccc(S(=O)(=O)N2CCOCC2)c1)Nc1ccc2c(c1)OCO2`, for which the Potency is inactive: > 76.9 µM.
The result for `O=C(Nc1ccc2c(c1)OCO2)C1CCCCN1S(=O)(=O)c1ccc(F)cc1` (configuration not stated) reads inactive: > 76.9 µM; that for `Cc1ccccc1Nc1nc(N)nc(CN(C)c2ccccc2)n1`, inactive: > 76.9 µM; that for `CCOC(=O)N1CCN(C(=O)C2CCN(S(=O)(=O)c3cc(Cl)ccc3Cl)CC2)CC1`, inactive: > 76.9 µM.
For `CC(CC(=O)O)CC(=O)Nc1ccccc1C(=O)O` (configuration not stated) the value was inactive: > 76.9 µM; for `COCC(C)n1c(C)cc(C(=O)CN2C(=O)NC3(CCCCC3C)C2=O)c1C` (configuration not stated), inactive: > 76.9 µM; for `COCCn1c(SCc2ccc(C(=O)OC)o2)nc2ccccc2c1=O`, inactive: > 76.9 µM.
With `O=C(C1CCN(Cc2ccc(F)cc2)CC1)N(CCO)Cc1ccccc1`, the Potency was inactive: > 76.9 µM.
With `O=C(c1ccco1)c1cn[nH]c1-c1ccc(Cl)cc1O`, the Potency is inactive: > 76.9 µM.
For `Cc1ccc(C)c(OCC(O)CN2CCCCC2C)c1` (configuration not stated) the value was inactive: > 76.9 µM; for `COc1ccc(C2C(C#N)=C(N)Oc3cc(O)ccc32)cc1OC` (configuration not stated), inactive: > 76.9 µM.
For `CCOP(=O)(c1ccccc1Cl)C1(O)CCCCC1` (configuration not stated) the value was inactive: > 76.9 µM; for `CCCOc1nc2c(c(=O)n(C)c(=O)n2C)n1CC`, inactive: > 76.9 µM; for `Cc1c(CNC(=O)c2cnn3c2NC(c2ccccc2)CC3C(F)(F)F)cnn1C` (configuration not stated), inactive: > 76.9 µM.
Take `Cc1ccc(C)c(CN2C(=O)C(C)Oc3ccc(C)cc32)c1` (configuration not stated): the Potency is inactive: > 76.9 µM.
For `Cc1nc2oc3c(NCc4ccccc4)ncnc3c2c2c1COC(C)(C)C2` the value was inactive: > 76.9 µM; for `COC(=O)c1ccc(OC)c(CSc2nnc(-c3ccc(C)cc3)o2)c1`, inactive: > 76.9 µM.
Turning to `CCc1ccc2nc(SCC(=O)N(CC)CC)c(C#N)cc2c1`, the Potency is inactive: > 76.9 µM.
On to `COc1ccc(OCC(=O)Nc2ccc(C)cc2)cc1`, for which the Potency is inactive: > 76.9 µM.
For `O=c1c2cc(N3CCOCC3)ccc2[nH]c(=S)n1Cc1ccco1`, the Potency was inactive: > 76.9 µM.
For `Cc1ccc2c(C(=O)CN3CCSCC3)c(C)[nH]c2c1` the value was inactive: > 76.9 µM; for `O=C(Nc1ccc2nsnc2c1)c1cccs1`, inactive: > 76.9 µM.
Take `CCSc1ncc(Cl)c(C(=O)N(Cc2ccc(N(C)C)cc2)C2CCS(=O)(=O)C2)n1` (configuration not stated): the Potency was inactive: > 76.9 µM.
The result for `O=C(Nc1cc(Cl)ccc1N1CCOCC1)c1cnccn1` reads inactive: > 76.9 µM; that for `CSc1nc2ccccc2n1Cc1cccc(F)c1`, inactive: > 76.9 µM; that for `COc1ccc(C2/C(=C(\O)c3cc(C)ccc3C)C(=O)C(=O)N2CCN(C)C)cc1OC` (configuration not stated), inactive: > 76.9 µM.
The result for `CCCOc1ccc(C(=O)N2CCN(c3ccc(NC(=O)CC)cc3Cl)CC2)cc1` reads “inactive”; that for `O=C1NC(c2ccccc2)(C(F)(F)F)SC2=NCCCN12` (configuration not stated), inactive: > 76.9 µM; that for `Cc1ccc2c(c1C)NC(=O)C2(O)CC(=O)c1ccc2c(c1)OCO2` (configuration not stated), inactive: > 76.9 µM.
Take `N=c1c(C(=O)NCc2ccc(F)cc2)cc2c(=O)n3ccccc3nc2n1CCCN1CCOCC1`: the Potency was inactive: > 76.9 µM.
For `CCOC(=O)c1ccc2c(c1)nc(COc1ccccc1C#N)n2CC`, the Potency is inactive: > 76.9 µM.
The result for `OCCCNCc1cccc2ccccc12` reads inactive: > 76.9 µM; that for `CCOc1cc(C(=O)NC(C)c2ccncc2)cc(OCC)c1OCC` (configuration not stated), inactive: > 76.9 µM.
The result for `CCC(C)n1c(=O)c(C(=O)Nc2ccccc2S(N)(=O)=O)c(O)c2ccccc21` (configuration not stated) reads inactive: > 76.9 µM; that for `CCOc1ccc(C(C)=O)cc1N1C(=O)C2C3C=CC(C3)C2C1=O` (configuration not stated), inactive: > 76.9 µM.
For the molecule `O=C(COC(=O)c1cccnc1)c1ccc(Cl)cc1`, the Potency is inactive: > 76.9 µM.
In the case of `O=C1C2C3C=CC(C3)C2C(=O)N1c1ncn[nH]1` (configuration not stated), the Potency was inactive: > 76.9 µM.
For `CCN(CC)c1ccc(NC(=O)Cn2nnc(-c3cccc(OC)c3OC)n2)c(C)c1` the value was inactive: > 76.9 µM; for `COC(=O)Cn1nc(-c2ccccc2)n(-c2ccccc2)c1=S`, inactive: > 76.9 µM; for `Cc1nc2sccn2c1-c1nc(C2CC2)c(C(=O)c2ccc3c(c2)NC(=O)CO3)s1`, inactive: > 76.9 µM.
For `COCCn1nnnc1SCC(=O)c1ccc(F)cc1` the value was inactive: > 76.9 µM; for `COC(=O)c1ccccc1NC(=O)CN1CCN(C(=O)c2ccco2)CC1`, inactive: > 76.9 µM.
In the case of `CCNc1nc(NCC)n2c(SCC(=O)O)nnc2n1`, the Potency is inactive: > 76.9 µM.
For `CC(C)CCNC(=O)C1CCCN(S(=O)(=O)c2ccc(F)cc2)C1` (configuration not stated) the value was inactive: > 76.9 µM; for `CN1CCN(C(CNS(=O)(=O)c2ccc(Cl)cc2)c2cccnc2)CC1` (configuration not stated), inactive: > 76.9 µM.
Turning to `Cc1ccc(SCc2cc(=O)[nH]c(N3CCN(Cc4ccc5c(c4)OCO5)CC3)n2)cc1`, the Potency was inactive: > 76.9 µM.
Turning to `CCn1c(SCC(=O)N2CCCc3ccccc32)nnc1-c1cccs1`, the Potency is inactive: > 76.9 µM.
For `CN(c1ccc(C(=O)Nc2ccccc2C(=O)N2CCCC2)cc1)S(C)(=O)=O` the value was inactive: > 76.9 µM.
For `COc1cc(C2NC(=O)NC(C)=C2C(=O)OC(C)(C)C)ccc1OCC(N)=O` (configuration not stated) the value was inactive: > 76.9 µM; for `CC1(C(=O)NC2CCCC2)CCC(=O)N1CCC1=CCCCC1` (configuration not stated), inactive: > 76.9 µM; for `CCC(CC)C(=O)Nc1cccc(-c2nc3ccccc3o2)c1`, inactive: > 76.9 µM.
For `CSc1nnc2c(n1)OC=Nc1ccccc1-2` the value was inactive: > 76.9 µM; for `CC12CCC(C(=O)N3CCc4ccccc43)(CC1=O)C2(C)C` (configuration not stated), inactive: > 76.9 µM.
`CC(=O)NS(=O)(=O)c1ccc(NS(=O)(=O)c2ccc(F)cc2)cc1`: the Potency is inactive: > 76.9 µM.
The result for `CC(=O)OCc1cc2cccc(C)c2[nH]c1=O` reads inactive: > 76.9 µM; that for `Cc1ccc(-c2ccc(=O)n(CC(=O)NCCN(C)C)n2)cc1`, inactive: > 76.9 µM; that for `COC(=O)c1ccc(CSc2nnc3ccccn23)o1`, inactive: > 76.9 µM.
As to `O=C(CN1C(=O)CSC1=O)NC1CCCCC1`, the Potency is inactive: > 76.9 µM.
The result for `CCOC(=O)c1cc2occc2n1CC(=O)NC1CCCCC1C` (configuration not stated) reads inactive: > 76.9 µM; that for `c1cc(-c2nc3cc(Cc4ccc5oc(-c6ccncc6)nc5c4)ccc3o2)ccn1`, inactive: > 76.9 µM.
The result for `O=C(COc1ccc(OCc2ccccc2)cc1)NC1CCOC1=O` (configuration not stated) reads inactive: > 76.9 µM; that for `Cc1cccc(-c2nc(CSCC(=O)N3CCN(c4ccccn4)CC3)c(C)o2)c1`, inactive: > 76.9 µM.
For `CCn1c(SC(=O)NC2CCCCC2)nnc1-c1cccs1` the value was inactive: > 76.9 µM; for `O=C1CC(c2c[nH]c3ccccc23)C(=O)N1` (configuration not stated), inactive: > 76.9 µM.
`Cc1oc(-c2ccc(Cl)cc2)cc1-c1nn2c(-c3ccco3)nnc2s1`: the Potency is inactive: > 76.9 µM.
The result for `Cc1ccc(-c2ccc(SCC(=O)Nc3nonc3C)nn2)cc1` reads inactive: > 76.9 µM; that for `CCC(=O)Nc1cc(C)c(NC(=O)CCc2ccccc2)cn1`, inactive: > 76.9 µM.
For `O=C(c1ccc(F)cc1)N1C2CCC1CC(O)(c1ccccc1F)C2` (configuration not stated) the value was inactive: > 76.9 µM; for `COc1ccc(S(=O)(=O)CCC(=O)O)cc1`, inactive: > 76.9 µM; for `N#Cc1c(NC(=O)CN2CCN(C(=O)c3ccco3)CC2)sc2c1CCCCC2`, inactive: > 76.9 µM.
For `CCOC(=O)N1CCN(S(=O)(=O)c2c(C)[nH]c(=O)[nH]c2=O)CC1` the value was “inactive”; for `CSc1snc(SCC(N)=O)c1C#N`, inactive: > 76.9 µM.
Consider `Cc1cc(C)n2nc(C(=O)NCc3ccco3)nc2n1`, for which the Potency was inactive: > 76.9 µM.
The result for `CC(OC(=O)c1cccs1)C(=O)NCc1ccco1` (configuration not stated) reads inactive: > 76.9 µM; that for `CCOC(=O)c1nnn(-c2nn3nnnc3c3ccccc23)c1C`, inactive: > 76.9 µM; that for `N=C1C(c2nc3ccccc3s2)=C(O)CN1CCCO`, inactive: > 76.9 µM.
For the molecule `CCOC(=O)c1c(-c2ccccc2)oc2ccc(O)c(CN3CCOCC3)c12`, the Potency was inactive: > 76.9 µM.
For `Cc1cccc2sc(NC(=O)CCNS(=O)(=O)c3cccs3)nc12`, the Potency is inactive: > 76.9 µM.
Take `O=C1Nc2ccc(S(=O)(=O)NCc3ccco3)c3cccc1c23`: the Potency was inactive: > 76.9 µM.
The result for `N#Cc1cc2c(nc1SCc1cccnc1)CCCC2` reads inactive: > 76.9 µM; that for `CC(C)(C)C(=O)NC1CCN(S(=O)(=O)c2cccc(C(F)(F)F)c2)CC1`, inactive: > 76.9 µM; that for `Cc1cccc(NC(=O)CCc2ccc(C)o2)c1`, inactive: > 76.9 µM.
For `COc1ccc(-c2csc3nc(C)n(-n4cccc4)c(=O)c23)cc1` the value was inactive: > 76.9 µM; for `CC1(C)OC(=O)C(=CNn2cnc3ccccc3c2=O)C(=O)O1`, inactive: > 76.9 µM; for `O=C(Cc1c[nH]c2ccccc12)Nc1nccs1`, inactive: > 76.9 µM.
